Laboratory results published in the supplement of paper PMC11417369.
The list shows a part of the results.

Test system: PfHDP1 homeodomain (GST-tagged)
Experiment: gcPBM binding intensity (ln(normalized median fluorescence intensity)); higher = stronger DNA binding
Procedure, shortened: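 Binding intensity is the highest Masliner-normalised natural-log median intensity over replicate spots in either probe orientation. To obtain it, GST-tagged P. falciparum DNA-binding domains made in E. coli were incubated for 1 h on an Agilent 4 × 180k array of primer-extended double-stranded 36-bp intergenic genomic probes plus negative controls. Detection used Alexa488 anti-GST antibody with scanning at 488 nm.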

| Sequence | gcPBM binding intensity (ln) |
| --- | --- |
| AAAATTAAAATATATACACACATATATATATTAAAT [CACACA_site4419] | 6.25 |
| TCTTCCCAAATAAAGTGTACATAAATACGAATAATA [XGTACX_site4363] | 6.65 |
| TTAAATTTTTTTTTGTGTACGAAAAACAGAAAAAAT [XGTACX_site8625] | 6.6 |
| ATATATATATACATATGTACATATAAAATAATTTTG [XGTACX_site3731] | 8.53 |
| TATGTGTATGGGAATGCATGTAAATATGTACATATA [TGCATGCA_site737] | 7.43 |
| TTGTTCCACAAAAATTTAGTCAAAAAAAAATAAAAA [TGCATGCA_negctrl_site546] | 6.25 |
| AATGAATAACAATACTATATGATTTTTAATACATTA [XGTACX_negctrl_site42] | 5.87 |
| ACAAAAAAAAAAATAACACACATGGGGGTGTATAAA [CACACA_site3797] | 6.93 |
| AATACAATATAGTGAAAAATAATTAAATACAATAAG [XGTACX_negctrl_site161] | 6.64 |
| CGTAAACAATTATGATGTACATAAAATATATATATA [XGTACX_site2705] | 8.39 |
| TCTATTCATTTTGAAGGTACACATTTCTTTATAATA [XGTACX_site6218] | 6.35 |
| GTATTAGATAAATACACACACAAGCATATATTTTTA [CACACA_site3431] | 6.56 |
| AATAAATATATAAATACACACAAACATACATATATA [CACACA_site9340] | 6.96 |
| AATATATCATTATATAAACACACAATATGTTTTTTA [CACACA_site9260] | 6.22 |
| AAAAATATATATATATATATATATATAAGGAATATA [XGTACX_negctrl_site450] | 7.35 |
| AAAACACATACTATATGTACATATAATAATTTATAT [XGTACX_site4525] | 6.47 |
| AAGAAAAAAAAAAAAAAAAAAAAAAAAAAAAAAAAA [TGCATGCA_negctrl_site263] | 6.24 |
| TTCTGTATATAGTGTGCACACAATTAAAAAAAAAAA [CACACA_site8400] | 10.8 |
| ATTATAAATAAAATATGTACATATGTATAAATACAT [XGTACX_site4002] | 6.39 |
| TATATATATATATATATATATATTTTTATTATATAT [XGTACX_negctrl_site89] | 9.39 |
| TTTATCCTTCTTTTGAGTACTCAAAGAGACCTATAA [XGTACX_site8050] | 7.04 |
| AAAAAAAACAGACACACACACAAATATTTATATATC [CACACA_site6342] | 6.72 |

| Sequence | gcPBM binding intensity (ln) |
| --- | --- |
| ATTATAAATATAAATATAAATATATATTGTTCCGCA [TGCATGCA_negctrl_site470] | 5.96 |
| TTGCACTCGTAAAAAGCACACATATAAAAACATTTA [CACACA_site7997] | 6.92 |
| TTAAAAATGTTATAATGTACATATAATATTTTATGA [XGTACX_site5954] | 6.37 |
| AAAAAAAATCAGACAGGTACACATTCCATGTTCAAA [XGTACX_site5380] | 6.15 |
| CATTAATATATATATAGTACATATACACCTTCATTA [XGTACX_site8473] | 6.58 |
| ATATATTATATTTAAGTGCATTAATTAAAATGCTTA [GTGCAC_site9403] | 9.6 |
| TAAGAATACGAAAGGTGTACACTGTGGAGACTTCAA [XGTACX_site2619] | 6.86 |
| AAAATAAATATAAAATGTACTTATATATATATATAT [XGTACX_site7803] | 9.12 |
| TATGAAGTGCACAATACACACTAATTCTATATAAAT [CACACA_site7269] | 10.3 |
| CAATTAAAAAATAATACATGCATATAAATAGATATT [TGCATGCA_site427] | 6.3 |
| ATAATTAAATAAAAAAGTACACATACATCATAATGC [XGTACX_site7656] | 6.61 |
| TATAATATATATGTAACACACAAAAGTTATATACTT [CACACA_site2868] | 6.39 |
| TATATAATAACATATGCATGCAAGTAATATAACCAA [TGCATGCA_site324] | 7.29 |
| ATAAAATTATATACTCGTACACAAAAAAAAAAAATA [XGTACX_site6035] | 6.59 |
| AAATATATTTTTTTTTGTACTCAAAAAGAAAAAAAA [XGTACX_site8540] | 6.03 |
| AAAAATTGAATGATGTGTACTTAAAAGAATATAGAA [XGTACX_site6588] | 6.56 |
| TTTTAATTAAATACAAAAAAAAAAAAAAAAAAAAAA [CACACA_negctrl_site1631] | 5.97 |
| TTTACACTTTTTTTTGTACACACTAATAAGATTAAC [CACACA_site9304] | 6.86 |
| AAAAAAATTTTTAAAAGTACATTAATATTAATATGT [XGTACX_site5177] | 6.77 |
| ACATTACAATTATTATAATCAATATATAACCTCTAA [TGCATGCA_negctrl_site105] | 6.47 |
| TTTTTTTATTATTATTGTACAAGGCCTTAGGTGATT [XGTACX_site5050] | 6.53 |
| TTTTCATGTTTTTTTCTTTATTTTTTTTTTTTTTTT [GTGCAC_negctrl_site511] | 6.24 |

| Sequence | gcPBM binding intensity (ln) |
| --- | --- |
| TACTTAATTATAAGGACATGCACAAAAGGAATTATT [TGCATGCA_site468] | 8.01 |
| AATTTTCATTTTAGAAGTACACACAAAAAATAAAAT [XGTACX_site4426] | 6.58 |
| ATTATATTTCAATTATGTACATATAAAATGAATAAA [XGTACX_site4204] | 6.23 |
| ATAAAATGCGCAAACACACACAAAAAAAAGATATAT [CACACA_site6875] | 7.67 |
| TTTTTAATTAATCTTATAAATATTTATAAATATATA [CACACA_negctrl_site1485] | 6.39 |
| ATGTAATCATTTTCGACTTTTTTTTTTTTTTTTTTT [CACACA_negctrl_site1132] | 6.66 |
| AGGAAATGTTTATATACATGCATAATTAAATATAAT [TGCATGCA_site672] | 6.58 |
| CATATTGTCATTCTGGTGCACTTTTTTTTTTTTTTT | 10 |
| ATATAATATAACAATACGCACACGTATACAAAAAAA [CACACA_site3151] | 7.03 |
| AATAAAAAAAAAAATAATATATATGTATAAATATAT [CACACA_negctrl_site1561] | 6.32 |
| AATACTCCATTGTATAGTACATATATTTTTATTTAT [XGTACX_site3641] | 6.41 |
| AGAATTTATAAAAACTGTACATATTTTCCAGTTATA [XGTACX_site2848] | 6.04 |
| TATTTTTATTTATATACACACTTACATATTTATATT [CACACA_site7666] | 6.67 |
| GTTGTAAAAAGAAAATGTACGTAATAAATATATATA [XGTACX_site3081] | 6.98 |
| ATAAATAATATAAATACACACTAAAAAAGATATATA [CACACA_site6397] | 6.67 |
| AAATAAAATACAATATGATAAAATGTTATCATATAT [CACACA_negctrl_site538] | 6.19 |
| AATAAAAGGAATAATTGTACATAATGATTATACGTT [XGTACX_site7548] | 6.25 |
| TTTTGTAAAATTAATTTATTATACATATATATTTCT [GTGCAC_negctrl_site728] | 6.35 |
| TTATTTTAATTTTTGGTGCATATTCAAGTGTACCTT [GTGCAC_site9791] | 9.95 |
| TAATGTACTTAAACCGCACACATATAAAAAAATAAA [CACACA_site8926] | 6.5 |
| TATTTACATATTTATATACACACTTTTGCGTGTCTG [CACACA_site1110] | 6.62 |
| TATTTTAACTTCTCATGTACATATATTATGTCTATA [XGTACX_site249] | 6.9 |

| Sequence | gcPBM binding intensity (ln) |
| --- | --- |
| CTTTGTAGTATATTAACACACAACTATTTATAATAT [CACACA_site3934] | 6.56 |
| TATCATAAACTTCCTTACTATACTTTTCTTATTCAT [CACACA_negctrl_site1341] | 6.5 |
| TAAAAAGGAAAACACACACACACATATATATATATA [CACACA_site3588] | 9.21 |
| ATTTTTAAGCATATCAAAAAAAAAAAAAAAATTAAT [CACACA_negctrl_site980] | 6.16 |
| TTATTATTAAGACACACACACAAAAAAAAAAAAAAA [CACACA_site6805] | 6.35 |
| TTTCCAATTAGTTTTGCATGTTGAAAAAATGTTGGA [TGCATGCA_site1035] | 6.4 |
| GGAAACACAATATATACACACATATATATATATATA [CACACA_site235] | 9.38 |
| ACACTTAAATATTGTTGTACAAAATGATAAAATGTA [XGTACX_site4588] | 6.83 |
| TTGATGTATACAATGTAGATTATTTAATATTTCAAT [GTGCAC_negctrl_site203] | 6.12 |
| ATTTATATTATAATATGTACACAAAAAAAATTAGGA [XGTACX_site565] | 6.91 |
| TTATATAACCCTCATGCATGCTAAGAAAAAAAAAAC [TGCATGCA_site936] | 6.59 |
| TAACATATCTTTAATACACACTTAAAAAAGTACTTA [CACACA_site4532] | 6.31 |
| TTGTTAGAGTATATTGAAAGGATAACCTTTTTTTAT [XGTACX_negctrl_site122] | 6.04 |
| TTTTTAATAAAATGATTGATAATTATTAAATTAAAA [CACACA_negctrl_site488] | 5.79 |
| TTGTGTTTGCGTAAATGTACGGAAAGACTTGAAGAC [XGTACX_site7235] | 6.97 |
| ACCATACATACATACACACACACACCCATATATATA [CACACA_site2917] | 7.59 |
| TTTCATGTTTTAAAGTGTACATAAATATATTATATG [XGTACX_site3367] | 6.77 |
| GAGCACCAAAATATATGTACATATGATAAATGTGAA [XGTACX_site1130] | 6.97 |
| ACATATATATAATATATATTTTTCGTGTGGTGTCAC [CACACA_negctrl_site543] | 6.62 |
| TCACTTTTATAATATAATATTCTATATCTTATTTTT [GTGCAC_negctrl_site717] | 6.39 |
| TTTTTTATTTTATTTTTTTCTGCTTATCCACATTAG [XGTACX_negctrl_site108] | 6.48 |
